Test results from article PMC10213050.
Changes are numbered by the printed parent chain. No constants are given. Whether binding was seen depends on the method and setting. Where a sequence is shown, tags or fusion partners need not be part of it.

Amino acid sequences for entries named in this document (tags omitted).
UniProt P12954: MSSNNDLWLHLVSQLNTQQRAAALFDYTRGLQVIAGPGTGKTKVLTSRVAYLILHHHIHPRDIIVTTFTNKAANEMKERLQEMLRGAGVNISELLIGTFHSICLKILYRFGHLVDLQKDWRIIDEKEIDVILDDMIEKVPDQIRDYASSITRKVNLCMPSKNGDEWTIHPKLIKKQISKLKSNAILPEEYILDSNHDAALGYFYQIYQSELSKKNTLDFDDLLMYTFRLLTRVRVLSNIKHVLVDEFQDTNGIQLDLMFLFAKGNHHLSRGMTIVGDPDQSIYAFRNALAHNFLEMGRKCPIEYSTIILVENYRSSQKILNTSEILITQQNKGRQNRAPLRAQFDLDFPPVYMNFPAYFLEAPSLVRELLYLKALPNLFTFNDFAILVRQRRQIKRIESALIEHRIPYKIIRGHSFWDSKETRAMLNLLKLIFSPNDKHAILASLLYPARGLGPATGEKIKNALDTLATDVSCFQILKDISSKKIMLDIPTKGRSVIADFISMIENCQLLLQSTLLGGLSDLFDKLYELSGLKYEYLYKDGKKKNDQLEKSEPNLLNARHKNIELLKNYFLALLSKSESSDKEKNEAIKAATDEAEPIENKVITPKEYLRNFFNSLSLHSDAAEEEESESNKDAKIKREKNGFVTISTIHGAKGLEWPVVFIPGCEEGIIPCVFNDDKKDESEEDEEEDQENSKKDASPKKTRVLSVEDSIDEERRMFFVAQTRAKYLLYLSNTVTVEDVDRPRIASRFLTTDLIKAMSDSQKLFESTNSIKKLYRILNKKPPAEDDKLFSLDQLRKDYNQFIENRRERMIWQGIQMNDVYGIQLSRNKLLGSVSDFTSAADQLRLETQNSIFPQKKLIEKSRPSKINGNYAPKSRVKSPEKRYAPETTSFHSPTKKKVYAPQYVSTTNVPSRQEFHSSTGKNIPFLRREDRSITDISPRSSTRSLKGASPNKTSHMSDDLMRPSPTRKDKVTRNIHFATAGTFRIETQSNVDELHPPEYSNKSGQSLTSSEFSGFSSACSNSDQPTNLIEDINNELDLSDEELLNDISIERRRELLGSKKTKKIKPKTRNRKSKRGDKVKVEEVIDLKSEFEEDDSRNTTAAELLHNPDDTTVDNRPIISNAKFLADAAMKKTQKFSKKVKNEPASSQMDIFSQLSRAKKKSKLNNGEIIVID
UniProt P25454: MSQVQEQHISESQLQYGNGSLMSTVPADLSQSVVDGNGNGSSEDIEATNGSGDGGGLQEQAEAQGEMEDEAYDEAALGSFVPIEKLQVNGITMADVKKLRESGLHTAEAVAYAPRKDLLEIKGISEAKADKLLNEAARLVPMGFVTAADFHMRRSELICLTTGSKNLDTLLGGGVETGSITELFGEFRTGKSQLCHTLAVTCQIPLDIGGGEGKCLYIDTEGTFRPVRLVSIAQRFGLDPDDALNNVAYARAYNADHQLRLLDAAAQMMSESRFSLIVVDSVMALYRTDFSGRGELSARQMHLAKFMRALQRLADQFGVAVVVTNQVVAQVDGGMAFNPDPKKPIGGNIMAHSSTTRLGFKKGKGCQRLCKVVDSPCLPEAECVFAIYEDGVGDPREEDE

B1: 6xHis-tagged Bre1 truncation 1-485 aa (domain or fragment, UniProt Q07457 1-485)
chain: MTAEPATKKIKLELSDPSEPLTQSDVIAFQKEALFRCINRRRVDFEALRKQYELSRRECIDVSRKLANIMALIVTLARFIETFCTDANEKQLCREIAQGDETLIVQRSDSFMKLLTKYGKPNTTDSNTNSNASDHIQELTTELKNLRKSKEELFYENSQLTEEISALKEYYTNIIRKYDRDESFTIKRVFKEDKTDAVKELREDEKESNENNIKSGNKDSSAINGDNTSKKSEKGDELVQAEDERKEDAENEKLELDLKFSDLRAEINSLSSTIKDLENIRRENEEELIKTRSEVSNLKKQQIAAADQDPDFKSYDHESLLAKIQHLTEQNAELSEINSSFLSKFQVLAKEKEIYTKKVREEFQKSLDSLVEMNSSLEKDVVRIRTARDDLLSKIAILEAEKSKTEVLSDLQHAIDILKEQWTKIDQRSNDTKSSSTQDALIKEIQDLEKGFRELSDLTHKKYSEIINHESVISKLTVEKTKADQ
B2: 6xHis-Bre1-DK2A (enzyme, UniProt Q07457 1-700)
chain: MTAEPATKKIKLELSDPSEPLTQSDVIAFQKEALFRCINRRRVDFEALRKQYELSRRECIDVSRKLANIMALIVTLARFIETFCTDANEKQLCREIAQGDETLIVQRSDSFMKLLTKYGKPNTTDSNTNSNASDHIQELTTELKNLRKSKEELFYENSQLTEEISALKEYYTNIIRKYDRDESFTIKRVFKEDKTDAVKELREDEKESNENNIKSGNKDSSAINGDNTSKKSEKGDELVQAEDERKEDAENEKLELDLKFSDLRAEINSLSSTIKDLENIRRENEEELIKTRSEVSNLKKQQIAAADQDPDFKSYDHESLLAKIQHLTEQNAELSEINSSFLSKFQVLAKEKEIYTKKVREEFQKSLDSLVEMNSSLEKDVVRIRTARDDLLSKIAILEAEKSKTEVLSDLQHAIDILKEQWTKIDQRSNDTKSSSTQDALIKEIQDLEKGFRELSDLTHKKYSEIINHESVISKLTVEKTKAAQAYFAAMRSKDSILIEIKTLSKSLSKSNELILQLKDSDRLLQQKIGNLHKQLDLSQNNERRLIDSSKTETLKIIDLNNTSTKLKRSLEKLQEESNKSIADMTHLETKLNDTEIELKHFKQKASHLESKCEKLHDTLFRGNNKNKGSSDEALVEELANFRTLVYCSLCSKNWKNMAIKTCGHVFCENCCKERLAARMRKCPTCNKAFSSNDLLTVHL
B3: 6xHis-bre1-EK2A (enzyme, UniProt Q07457 1-700)
chain: B2 chain with A484D, A486K, E500A, K502A

Legend:
[1] = biological target: GST-Srs2 (yeast (Saccharomyces cerevisiae)) (UniProt P12954); assay: pull-down; GST-Srs2 on beads with 6xHis-tagged WT, truncated or mutated Bre1; detected by Western blot with an anti-His antibody; whether ssDNA was included is not told; both purified
[2] = biological target: 6xHis-Rad51 (yeast (Saccharomyces cerevisiae)) (UniProt P25454); assay: native gel or EMSA; Rad51 or hRad51 on circular M13 mp18 ssDNA (100 nM), then Bre1, bre1-EK2A or RNF20N added, 37 °C 15 min; glutaraldehyde cross-linking; 0.8% agarose gel; both purified

Row | Binder | binding [1] | binding [2]
1 | B1 | no binding | 
2 | B2 | no binding | 
3 | B3 |  | no binding
